Data from the antibiotic and cytotoxicity screens of Wong et al. (2023).
The other results are listed elsewhere or left out.

Tests used:
HSkMC = human skeletal muscle cells; assay: cytotoxicity call (relative viability < 0.9); conditions: 10 µM
HepG2 = assay: cytotoxicity call (relative viability < 0.9); conditions: 10 µM
S. aureus RN4220 = assay: growth inhibition call (relative growth <= 0.2); conditions: 50 µM

Compound | cytotoxicity call (HSkMC) | cytotoxicity call (HepG2) | growth inhibition call (S. aureus RN4220)
COc1ccc(S(=O)(=O)N(C)C[C@@H]2Oc3ccc(NS(=O)(=O)c4ccc(F)cc4)cc3CC(=O)N([C@@H](C)CO)C[C@H]2C)cc1 | inactive | inactive | inactive
O=C(C[C@@H]1C=C[C@H](NS(=O)(=O)c2ccc(F)cc2)[C@@H](CO)O1)NCCN1CCCCC1 | inactive | inactive | inactive
CS(=O)(=O)N1C[C@H](NC(=O)c2cnccn2)[C@H]2OCCC[C@H]21 | inactive | inactive | inactive
C[C@@H]1CN([C@H](C)CO)C(=O)c2cccc(NC(=O)c3ccncc3)c2O[C@H]1CN(C)Cc1ccc2c(c1)OCO2 | inactive | inactive | inactive
C[C@@H]1CN([C@H](C)CO)C(=O)c2cc(NC(=O)Nc3cccc4ccccc34)ccc2O[C@@H]1CN(C)C(=O)Nc1ccc2c(c1)OCO2 | inactive | inactive | inactive
C[C@H](CO)N1C[C@H](C)[C@H](CN(C)S(=O)(=O)c2cccs2)Oc2c(NC(=O)c3ccncc3)cccc2C1=O | inactive | inactive | inactive
C[C@H]1CN([C@@H](C)CO)S(=O)(=O)c2ccc(-c3cccnc3)cc2O[C@H]1CN(C)C(=O)c1cccc(F)c1 | inactive | inactive | inactive
COc1ccc(S(=O)(=O)N2C[C@@H](O)COC[C@H]3O[C@@H](CC(=O)N[C@H]4CCN(Cc5ccccc5)C4)CC[C@@H]32)cc1 | inactive | inactive | inactive
C[C@@H]1CN([C@H](C)CO)C(=O)c2cc(NC(=O)Cn3cnnn3)ccc2O[C@H]1CN(C)C(=O)Nc1ccc(C(F)(F)F)cc1 | inactive | inactive | inactive
COC(=O)c1c(CC[C@@H](CO)NC(=O)N[C@@H](Cc2ccccc2)Cn2cc(-c3ccccn3)nn2)oc(C(=O)N2CCOCC2)c1C(=O)OC | inactive | inactive | inactive
Cc1noc(C)c1NC(=O)Nc1ccc2c(c1)C(=O)N([C@H](C)CO)C[C@H](C)[C@H](CN(C)C(=O)NC1CCCCC1)OCCCC[C@H](C)O2 | inactive | inactive | inactive
C[C@@H]1CN([C@H](C)CO)C(=O)Cc2cc(NS(=O)(=O)c3ccc(Cl)cc3)ccc2O[C@H]1CN(C)C(=O)Nc1cccc2ccccc12 | inactive | inactive | inactive
CN(C)CCCCCCNC(=O)[C@H]1C[C@H]2C(=O)NCC(=O)N2[C@H]1c1cccc(OCCO)c1 | inactive | inactive | inactive
C[C@@H]1CCCCO[C@H](CN(C)C(=O)Cc2ccccc2)[C@@H](C)CN([C@H](C)CO)C(=O)c2cc(NC(=O)Nc3ccccc3)ccc2O1 | inactive | inactive | inactive
C[C@H]1CN([C@@H](C)CO)C(=O)CCCn2nncc2CO[C@@H]1CN(C)S(=O)(=O)c1ccc(Oc2ccccc2)cc1 | inactive | inactive | inactive
CCS(=O)(=O)Nc1ccc2c(c1)C(=O)N(C)[C@@H]1CC[C@@H](CC(=O)NCc3ccccc3F)O[C@@H]1CO2 | inactive | inactive | inactive
Cc1ccc(S(=O)(=O)Nc2ccc3c(c2)C(=O)N([C@@H](C)CO)C[C@@H](C)[C@@H](CN(C)Cc2ccccc2)OCCCC[C@H](C)O3)cc1 | inactive | inactive | inactive
CC(C)NC(=O)[C@H]1CC[C@@H](n2c(NC(=O)c3ccc(F)cc3)nc3ccc(CN4CCC(C(C)(C)O)CC4)cc32)CC1 | inactive | active | inactive
O=C(C[C@@H]1CC[C@H]2[C@@H](COC[C@@H](O)CN2S(=O)(=O)c2ccc(F)cc2)O1)NCCN1CCCCC1 | inactive | inactive | inactive
CC(=O)O[C@H](C)[C@H]1[C@@](C)(O)CC(=O)[C@]23O[C@]12C(=O)c1ccc(-c2ccc4c(c2O)[C@@H](O)[C@@]25O[C@]2(C4=O)[C@@H]([C@@H](C)OC(C)=O)[C@@](C)(O)CC5=O)c(O)c1[C@H]3O | inactive | inactive | inactive
C[C@H](CO)N1C[C@H](C)[C@H](CN(C)S(=O)(=O)c2ccc(F)cc2)Oc2ccc(NS(=O)(=O)c3ccc(F)cc3)cc2CC1=O | inactive | inactive | inactive
COCCNC(=O)C[C@@H]1CC[C@@H]2[C@H](COC[C@H](O)CN2S(=O)(=O)c2ccccc2F)O1 | inactive | inactive | inactive
Cc1ccccc1S(=O)(=O)N1C[C@@H](O)COC[C@H]2O[C@H](CC(=O)NCc3ccccc3Cl)CC[C@@H]21 | inactive | inactive | inactive
